Measured values: the supplement of paper PMC11417369
± gives the standard deviation of the averaged measurements. This is one part of the list.

system: PfAP2-G AP2 domain (GST-tagged); assay: gcPBM binding intensity (ln(normalized median fluorescence intensity)); higher = stronger DNA binding
Method in brief: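 Plasmodium falciparum DNA-binding domains carrying a GST tag were expressed in E. coli and applied for 1 h, at about 25 μg on average, to an Agilent 4 × 180k array. The array held primer-extended double-stranded 36-bp intergenic genomic probes together with negative controls, and binding took place in 1× PBS with 1% milk, 0.2 mg/ml BSA, 0.5% salmon testes DNA and 0.03% Triton X-100. An Alexa488 anti-GST antibody detected bound protein, and the array was scanned at 488 nm. Binding intensity is taken as the highest Masliner-normalised natural-log median intensity across replicate spots of either probe orientation.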

Sequence | gcPBM binding intensity (ln)
ATATATATGTATACATGTACATATTTTATTATGTGC [XGTACX_site7207] | 11.2 ± 0.61
TTTTTAAATTCTTTAATATGTTTTATATATCAAAAT [CACACA_negctrl_site75] | 9.755 ± 0.049
TCTTATCATTTTAAATCACACACATATATATATATA [CACACA_site8925] | 10.2 ± 0.45
TTACAGATATTTATCTGTACATATATTTAAAAATAT [XGTACX_site7431] | 11 ± 0.81
TAATTTTTTTAAAAGCGTACATTTAAAAAAAAATAT [XGTACX_site2736] | 11.4 ± 0.98
AAAAGTAAAAAAAAAAAAAGTAAAAAAAAAAAAAAA [CACACA_negctrl_site389] | 9.685 ± 0.092
ATTTATATTTATAAATGTACACATATATATTTCATT [XGTACX_site2723] | 11.2 ± 0.63
TCCTATAATTTTTTAATCAAAATATTTTATCCTTTG [CACACA_negctrl_site793] | 9.74 ± 0.25
ACTGTAATATTGAAAGTGCATTAAAGTGTATATTAT [GTGCAC_site9970] | 10.2 ± 0.18
TTATTTTATTTAGGGTGTACCCAATTTTTCCATATG [XGTACX_site4957] | 11.5 ± 0.86
GTTATATATTTTTATGCATGCATTTTTAAATATATA [TGCATGCA_site175] | 9.8 ± 0.15
TATATATATTTATGCACACAAAATATATTATAGAAT [CACACA_site3740] | 10.14 ± 0.057
AATGTTTATTTTGTTTGTACATAAAATGAATAAAAT [XGTACX_site1456] | 11.1 ± 0.77
AAAATATACATATATGCATGCATATAAATAAAAAAA [TGCATGCA_site812] | 9.795 ± 0.064
ATACATAAATTTTGTACACACAAAAAAAAAAAAGCT [CACACA_site1351] | 11.2 ± 0.87
TTTATATATATAAATATGTAGATAACAATATTCTGA [TGCATGCA_negctrl_site554] | 9.78 ± 0.23
TTATTCCTTTTCCTTTTTTTTTTTTAACCAAAAAAA [CACACA_negctrl_site309] | 10.2 ± 0.38
AATGATAAATAAAAAGCATGCAACAAATAAAAATAA [TGCATGCA_site453] | 10 ± 0.2
AACAAAACTTTGGATACATGCAAAATTTTTAAATGA [TGCATGCA_site249] | 9.935 ± 0.035
GATAAAACGTTATGCACACGTACGTGAGTATTTATA [CACACA_site1570] | 11.1 ± 0.68
GTTTTTTTGTTTTAAAGTACTTAAAAAAAAAATATA [XGTACX_site6998] | 11.3 ± 0.84
ATATATATATGTTTATGTACTTATAATAATATAACT [XGTACX_site4828] | 11.2 ± 0.76
TAATTTAAGAAAAAATGTACACAAATATAATAATAG [XGTACX_site8317] | 11.5 ± 0.81

Sequence | gcPBM binding intensity (ln)
AATAGTAAAAGATATACACACACCAAAAAATAGAAT [CACACA_site2289] | 10.13 ± 0.014
ATTATACATATGTATGCACACATACATACACATATA [CACACA_site9155] | 10.3 ± 0.35
GCATGGAACCATATATGTACATATATAAATAAATAA [XGTACX_site4996] | 11.2 ± 0.63
GTATCTTTCAAAATATGTACATATATATATGTGTGT [XGTACX_site3512] | 11.3 ± 0.78
AACTTTATTCCTAATTGTACACATATATATATATAT [XGTACX_site6823] | 11.5 ± 0.84
ATACATATATGTGTGTGTACATAAATGTATATATTT [XGTACX_site6242] | 11.3 ± 0.91
GATTTATATAATTCAAGTACTAAAAATATTTTTAAT [XGTACX_site5285] | 10.8 ± 0.61
CGTATAACATATGACACACACACATACATACACAAA [CACACA_site1803] | 10.3 ± 0.34
TTAATAATAAATGAAAGTACATATAAAAAAAAAAAA [XGTACX_site717] | 11 ± 0.91
AAAAAAAATATCTATGCATGTAATATTATGATATTG [TGCATGCA_site546] | 9.585 ± 0.078
TAACATTAAAATAAAAGTACTTAATAATATTAAGTA [XGTACX_site5920] | 11.1 ± 0.87
CAGATTTATTCAAACGCATGCTGTTTTAAAATAAAA [TGCATGCA_site874] | 9.87 ± 0.21
TGTATATTTGATTCATGTACATATTTTATTTTAACT [XGTACX_site5169] | 11.2 ± 0.49
TAAGACTATTAAAAAATTGAGTACATGAACTGTTCA [GTGCAC_negctrl_site670] | 11.4 ± 0.98
AAATATAAAAAATATACACACATATATAATATATAT [CACACA_site2963] | 9.84 ± 0.014
TATATATATATATATACACACATACATATATATATT [CACACA_site8185] | 10.2 ± 0.34
ACATAAATATATTTTTCACACATCCTTAGTTATGAA [CACACA_site5179] | 10.1 ± 0.18
ATCCGCTGCCTTTTGGTGCAGAACATAATCATGTAA | 10.2 ± 0.35
TTTAAAATATTAAAATGTACATATATATATATATAT [XGTACX_site6784] | 11 ± 0.63
ATATTGTAAGTAAACACACACACATCTATAGGTATA [CACACA_site6462] | 10.06 ± 0.071
AATGTATTTAAACTGACACACAAAAAAAATAAAATA [CACACA_site2138] | 10.4 ± 0.3
AATGGTAATCCACATACACACACACCGACACATATA [CACACA_site8876] | 10.3 ± 0.26
ATCGCGAAGTAGCATTCACACACAGCAAAATATATA [CACACA_site9162] | 9.95 ± 0.16

Sequence | gcPBM binding intensity (ln)
AACATTTATATAAAAGAACACACATATAAAATATTA [CACACA_site9199] | 9.9 ± 0.12
AAAAAAATTACGCAAGTGCATATAATTTAACAAAAA | 9.95 ± 0.14
ATATATATATATCACGCACACACGAATTTTAAATAT [CACACA_site3131] | 10.3 ± 0.42
AACAATAGTAAAAATACACACATTAAACTTCATTTC [CACACA_site2126] | 9.87 ± 0.14
ATACAATGATATATACATATATATATATATATATAT [TGCATGCA_negctrl_site359] | 10.3 ± 1
AAAAAAAAAAAAAAAAAAAAAAAAAAAAAAAAAAAA [CACACA_negctrl_site204] | 11.2 ± 0.58
CATTTACCCTTATTAACACACAAAATAAAATACGCT [CACACA_site7249] | 10.2 ± 0.16
AAATAACAAAAGAAGGTGCTCATAAAAATTCATACA [GTGCAC_site9864] | 10.1 ± 0.24
AAAAAAAAAAAACATACACACATACATACATATATA [CACACA_site8222] | 9.86 ± 0.099
CACATACACATACAAACACACATTATGTATATATAT [CACACA_site1599] | 10.1 ± 0.11
GAAAGGACAAGAATAGTGCACATGCAATGTTATTTT [GTGCAC_site9985] | 10.4 ± 0.21
ACAAAATTTTTAAGAACACACAAAAATGTACTATCG [CACACA_site2550] | 10.9 ± 0.53
AATCATGCTCCGGAAAGTACATAAATAAATAAATAA [XGTACX_site1690] | 11.2 ± 1.1
AAACAATTTTTTAAAAGTACTTGAAAATTGTGAAAT [XGTACX_site2461] | 11.2 ± 0.68
ATATATACAACTAAAGAACACACATCATTGTTCATT [CACACA_site9224] | 9.84 ± 0.13
TTCTATATATTTGGAAGTACATTATATTTATTTTTT [XGTACX_site3172] | 11.1 ± 0.73
TAAAATTTTTGTTTTTGTACGAAACATCAATTTTAC [XGTACX_site4963] | 10.7 ± 0.34
TTATTTATAAGTAATATTATATATTCTTTTAATACA [CACACA_negctrl_site471] | 9.615 ± 0.049
CATATATAAATATGTACACACATATGTATGATCTCA [CACACA_site3868] | 11.4 ± 0.81
ATAGGCAAAAAGTGTACACATTCATTTATATAAATA [CACACA_site4480] | 11.7 ± 0.79
TTATATATAAATGTGTGTACTTATAAAATAATCATT [XGTACX_site5370] | 11.3 ± 0.86
AATGGTATAAACAATACACACATAATATAAATATTG [CACACA_site6878] | 10.1 ± 0.13
TTTATTTGTTCATGCGTGCACTTGATAACAATGTAC [GTGCAC_site9561] | 11 ± 0.53

Sequence | gcPBM binding intensity (ln)
TTTTTTTTTGTTAAAGTGCATATATTAAATTTTCCT [GTGCAC_site9677] | 9.97 ± 0.17
GGAAAAAAATATAAAAGTACTTTTTATTTATTTTAT [XGTACX_site7418] | 11.1 ± 0.57
AAAAAAAATTCATATTGTACTTTTAAATTAAAGAAA [XGTACX_site4521] | 11.3 ± 0.83
TTAAAATTTTTCAAAAGTACATAAATAATATATATT [XGTACX_site4694] | 11.2 ± 0.8
AATATATTATATATATGTACATAATGTGTAATACCT [XGTACX_site2845] | 11 ± 0.55
AGTGAATATCTAAAATGTACATAAATAAATAAATAA [XGTACX_site8293] | 11.1 ± 0.7
CGTTATATCAAAGGAGTGCATTATGAATACGTTTTA [GTGCAC_site9837] | 10.3 ± 0.23
TTTCACTACACAAATACACACAAAAATATATGTGCA [CACACA_site2632] | 10.1 ± 0.13
TTCTATTTTATATGTGCACACATATACACCCACAAA [CACACA_site1130] | 10.9 ± 0.54
TTCTTTTTGAAACACACACACACAAGAAAATATATA [CACACA_site3110] | 10.3 ± 0.33
AAAAAAAAAAAACATACACACATACATACAGATATA [CACACA_site4681] | 9.94 ± 0.13
ATTTTTTAAATTTAAACACACATTTTGTATATGTTT [CACACA_site1654] | 9.94 ± 0.057
GATATATAATATAATACACACATTTTATGAATGTAA [CACACA_site24] | 9.82 ± 0.099
TCTACTATTATATATTGTACAAATGATACTTATATT [XGTACX_site1819] | 10.9 ± 0.61
AAATTTTTTGTTCAATGTACTTTTTTATTATATTTT [XGTACX_site5298] | 11.3 ± 0.73
ATATATAATTAATAAAGTACATTAATTATTTCTTTT [XGTACX_site3034] | 11.1 ± 0.61
AAAAAAATAACAAAAGTGCATTTTTATGAGTTATCT | 9.775 ± 0.007
TTTCCTTACCCTTTCCTGGTGTAGAAATTATACTCT [TGCATGCA_negctrl_site116] | 10 ± 0.13
TATAATTAAAATTTGTGTACGTATGACAAAACATTT [XGTACX_site7072] | 11.6 ± 0.91
AGATACAAGCACTATAGTACACATACTAAAAATATA [XGTACX_site5849] | 11.2 ± 0.8
